Source: the RNAGym collection of RNA variant scans (doi:10.7554/elife.90254)
Read counts are not given, so values of variants with three or more changes are uncertain.

B1: LINE1-mini (parent)
chain: GGCAGAGCUCAACACAGCGUGGCAAAGUGGCUGUGGCUAGACUGCC

Variants of: B1
Test: self-cleavage, relative activity (ratio to wild type); higher = more cleavage; in vitro, sequencing; the parent is a self-cleaving ribozyme

Row | Variant | self-cleavage
1 | GGCAGAGCUCAACACAGAGUGGCAAAGUGGAUGUGGCUAAACUGCC | 0.01
2 | GGCAGAGCUCAACACAGAGUGGAAAAGGGGCUGUGGCUAGACUGCC | 0.77
3 | GGCAGAGCUCAACACAGAGUGGCAUGGUGGCUGUGGCUAGAAUGCC | 0.05
4 | GGCAGAGCUCAACACAGAGUGGCACAGUGGCUGUGGCUAGAGUGCC | 0.06
5 | GGCAGAGCUCAACACAGAGUGGCAGAGUGGCUAUGGCUAGACUGCC | 0.04
6 | GGCAGAGCUCAACACAGAGUGGAAAAGGGGCUCUGGCUAGACUGCC | 0.01
7 | GGCAGAGCUCAACACAGAGUGGCAAAGUGGUUGUGGCUAGACUGCU | 0.04
8 | GGCAGAGCUCAACACAGAGUGGCAGAGUGUCUGUGGCUAGACUGCC | 0.81
9 | GGCAGAGCUCAACACAGAGUGGCAACGUGGCUGUGCCUCGACUGCC | 0
10 | GGCAGAGCUCAACACAGAGUGGCAGAGUGGCUGUGACUAGACUGGC | 0.01
11 | GGCAGAGCUCAACACAGAGUGGCACAGUGGCUGUGGCAAAACUGCC | 0.03
12 | GGCAGAGCUCAACACAGAGUGGCAUAGUGGUUGUGUCUAGACUGCC | 0.06
13 | GGCAGAGCUCAACACAGAGUGGCAACGUGGCUGAGGCUAGACUGCC | 0.02
14 | GGCAGAGCUCAACACAGAGUGGCAAAGUGGCUGUGGCUCGACCGCC | 0.02
15 | GGCAGAGCUCAACACAGAGUGGGAAAGUGACUGUGGCUAGACUGCC | 0.9
16 | GGCAGAGCUCAACACAGAGUGGCAAUGUGGCUGUGGCUAGACUACC | 0.04
17 | GGCAGAGCUCAACACAGAGUGGCUAUGUGGCUGUGGCUAGACUUCC | 0.04
18 | GGCAGAGCUCAACACAGAGUGGCCAAGUGGCUGUGGCUAGACUUCC | 0.01
19 | GGCAGAGCUCAACACAGAGUGGCGAAGUGGCUGAGGCUAGACUGAC | 0

Row | Variant | self-cleavage
20 | GGCAGAGCUCAACACAGAGUGGCAAAGUGGGUGAGGCUAGACUGCG | 0.02
21 | GGCAGAGCUCAACACAGAGUGGCAUAGUGGCUGUAGCUAGAAUGCC | 0.03
22 | GGCAGAGCUCAACACAGAGUGGCAAGGUUGCUGUGGCUAGACUGCC | 0.52
23 | GGCAGAGCUCAACACAGAGUGGCAAAGUGGCUGUGGAUAGACAGCC | 0.03
24 | GGCAGAGCUCAACACAGAGUGGCAAUGUGGCCGUGGCUAGACUGCC | 0.28
25 | GGCAGAGCUCAACACAGAGUGGCAAAGUGGCUGUGGCUAGUCUGAC | 0.04
26 | GGCAGAGCUCAACACAGAGUGGCAAAGUGGCUGUGGUUACACUCCC | 0.1
27 | GGCAGAGCUCAACACAGAGUGGCCAAGUGGCUGUGGCUAAACUGCC | 0.03
28 | GGCAGAGCUCAACACAGAGUGGCAAAGUGGAUGUGGCUCGACUGCG | 0.01
29 | GGCAGAGCUCAACACAGAGUGGGAAACUGGCUGUGGGUAGACUGCC | 0
30 | GGCAGAGCUCAACACAGAGUGGCGAAGUGGAUGAGGCUAGACUGCC | 0.01
31 | GGCAGAGCUCAACACAGAGUGGCAAGGUGGCUGCGGCUAGACUGCC | 0.11
32 | GGCAGAGCUCAACACAGAGUGGCAAAGUGGCUGUGGUUAGACUGCU | 0.02
33 | GGCAGAGCUCAACACAGAGUGGCAAAGUGGCUGUGGUUAGACUGCA | 0
34 | GGCAGAGCUCAACACAGAGUGGCACAGUGGCUGUGGCUAGACUACC | 0.06
35 | GGCAGAGCUCAACACAGAGUGGCGAAGUGGCUAUGGCUAGACGGCC | 0
36 | GGCAGAGCUCAACACAGAGUGGCAAGUUGGCUGUGGCUAGACUGCC | 0.02
37 | GGCAGAGCUCAACACAGAAUGGCAUAGUGGCUGUGGCUAGAAUGCC | 0.08
38 | GGCAGAGCUCAACACAGAGUGGCAAAGUGGGUGUGGCUAGUCUACC | 0

Row | Variant | self-cleavage
39 | GGCAGAGCUCAACACAGAGUGGCAAAGUGGUUUUGGCUAGACUGCC | 0.04
40 | GGCAGAGCUCAACACAGAGUGGCUAAGUGUCGGUGGCUGGACUGCC | 0.02
41 | GGCAGAGCUCAACACAGAGUGGCAUAGUGGCUGUGGUUAGACUGGC | 0.01
42 | GGCAGAGCUCAACACAGAGUGGCACAGUGGCUGAGGCUGGACUGCG | 0.01
43 | GGCAGAGCUCAACACAGAGUGGCAAAGUGGCUGUGGCUUGCCUUCC | 0.02
44 | GGCAGAGCUCAACACAGAGUGGCCAAGUGGCAGUGGCUAGACUGCC | 0
45 | GGCAGAGCUCAACACAGAGUGGCAAAGUGGCUGUGGCUGGACAGUC | 0.03
46 | GGCAGAGCUCAACACAGAGUGGCAGAGUGGCUGUGGCUAGACUGAC | 0.01
47 | GGCAGAGCUCAACACAGAGUGGUUAAGUGGCUGUGGAUAGACUGCC | 0.04
48 | GGCAGAGCUCAACACAGAGUGGCAAUGUGGCUGUGGCUCGACUGCC | 0.02
49 | GGCAGAGCUCAACACAGAGUGGGAAAGUGGUUGUGACUAGACUGCC | 0.02
50 | GGCAGAGCUCAACACAGAGUGGCUAAGUGGCUGUGGCUAGACUGCA | 0.22
51 | GGCAGAGCUCAACACAGAGUGGCAAAGUGGCUGUGGGAAGACUGCC | 0.01
52 | GGCAGAGCUCAACACAGAGUGGCAAAGUGGGUGAGGCUAGACUGCC | 0.01
53 | GGCAGAGCUCAACACAGAGUGGCAAAGUGGAUGUAGCUAGACUGCC | 0.03
54 | GGCAGAGCUCAACACAGAGUGGUAAAGUGGCUGUGGCUAUACUGCC | 0.02
55 | GGCAGAGCUCAACACAGAGUGGCAAGGUGGCUGUGGCUAGAGUGCC | 0.04
56 | GGCAGAGCUCAACACAGAGUGGCAAGGUGGUUGUGGCUUGACUGCC | 0.02
